The results in this text go back to ChEMBL document CHEMBL5308541, “MAIP: An Open-Source Tool to Enrich High-Throughput Screening Output and Identify Novel, Druglike Molecules with Antimalarial Activity” (ACS Med Chem Lett, 2023).

Screen size: about 150,000 compounds; about 540 (0.36%) showed an effect of 50% or more. This is one part of the list.

This assay deals with Plasmodium falciparum. Kind of assay: Primary screen in NF54 nanoGlo assay, in single point, at 2uM, 72h; a lower Z score goes with more inhibition. Particulars: timepoint 72 hour. In kind it is functional, Erythrocyte.
The term % Inhibition denotes the drop in the measured response relative to a control, in per cent. With `CN1CC(=O)N(CC(=O)NC[C@H]2CC[C@@H]3C[C@H]2C3(C)C)C1=O`, the “% Inhibition” value is listed as -8% and the Z score came out at 1.19.
Consider `FC(F)(F)Oc1cccc(C2(NCc3ccc4cn[nH]c4c3)CCOCC2)c1`, for which the “% Inhibition” value is -6% and the Z score amounted to 0.88.
The corresponding values for `CN1CCN(c2cc(N3CC[C@H](OCc4ccncc4)C3)ncn2)CC1=O` are -11% and 1.61.
On to `CC(C)CCC1CCCC1NCCCN1CCOCC1` (configuration not stated), for which the “% Inhibition” value is 6% and the Z score is on record as -1.29.
For `COC1COCC1NS(=O)(=O)c1cc(C(N)=O)cs1` (configuration not stated), in that order: -12% and 1.99.
Regarding `C[C@@H](CCNc1nccs1)N1CCN(C)CC1`, the “% Inhibition” value was -3% and the Z score is 0.65.
The corresponding values for `FC(F)(F)c1cccnc1NCC[C@H]1CCCCN1C1CCCC1` are 2% and -0.24.
`CC(C)N1CCC(Nc2nc(-c3ccccc3)cc(C(F)(F)F)n2)CC1`: the “% Inhibition” value is 7% and the Z score is on record as -1.35.
The corresponding values for `FC(F)(F)c1cccnc1NCCNCc1c[nH]nc1-c1cccnc1` are -8% and 1.62.
On to `COC1(OC)CCOCC1NC(=O)CC(C)Cc1cccc(F)c1` (configuration not stated), for which the “% Inhibition” value amounted to 8% and the Z score is given as -1.81.
In the case of `NC(=O)C12CCCC1CN(C(=O)NC(c1cccnc1)C1CC1)C2` (configuration not stated), the “% Inhibition” value is reported as -4% and the Z score was found to be 0.91.
For `OCC1CCN(Cc2ccccc2NCc2cnc3ccccc3c2)CC1`, in that order: -2% and 0.34.
Regarding `CN(Cc1cc(-c2ccncc2)no1)C(=O)NC[C@H]1CCCN(CCO)C1`, the “% Inhibition” value came to 3% and the Z score is on record as -0.59.
For the compound `COc1ccccc1CCNC(=O)Cc1ccc(N2CCC(NCCc3c[nH]cn3)CC2)cc1`, the “% Inhibition” value stood at 5% and the Z score was -0.93.
Regarding `C[C@@H](CO)N(C)c1ncc(Cl)cn1`, the “% Inhibition” value is on record as -2% and the Z score worked out at 0.31.
Take `CN1CCC[C@@H](CNCc2cccc3cc[nH]c23)[C@@H]1c1cncn1C`: the “% Inhibition” value is 7% and the Z score is given as -1.12.
Turning to `NS(=O)(=O)c1ccc2[nH]c(-c3ccc(N4CCCC4)cc3)nc2c1`, the “% Inhibition” value was found to be 1% and the Z score was -0.18.
As to `O=C(NC1CC1)C1CCCC(Nc2ncnc3cc(F)c(F)cc23)C1` (configuration not stated), the “% Inhibition” value is recorded as -14% and the Z score is reported as 2.41.
For `Nc1nc(NCc2cnc3ccccc3c2)cc(C2CC(N)C2)n1` (configuration not stated), in that order: 6% and -0.85.
For `Fc1cncnc1NCc1cn(-c2cccs2)nn1`, the “% Inhibition” value was -6% and the Z score was found to be 0.92.
For `CC(C)(CN1CCCC1)NC(=O)c1ccc(-c2cccc3c(N)ccnc23)cc1`, in that order: 14% and -2.46.
The corresponding values for `Cc1nc(N)sc1C(=O)NC1CCN(C(=O)N2CCOCC2)CC1` are -1% and 0.18.
For `O=C(NCC1CN(C(=O)c2ccccc2)C2CCN1C2)c1cc2c(F)cccc2[nH]1` (configuration not stated), in that order: -8% and 1.34.
Consider `O[C@@]1(CN(CC#Cc2ccccc2)C2CC2)CCCN2CCCC[C@@H]21`, for which the “% Inhibition” value is -8% and the Z score amounted to 1.33.
The corresponding values for `CCC[C@H]1CN(C(=O)OC(C)(C)C)CCN1c1cc(-n2ccnc2)ncn1` are 0% and -0.06.
Consider `CCOC(=O)N1CCN(C(=O)c2ccc(N3CCC(NC[C@H]4COCCO4)CC3)cc2)CC1`, for which the “% Inhibition” value is -6% and the Z score came out at 1.23.
For `Cc1nc(N2CCC(CNC(=O)OC(C)(C)C)CC2)c2cc[nH]c2n1`, in that order: 3% and -0.44.
Turning to `c1cc(CNC2CCN(c3nccs3)CC2)cc(OC2CCC2)n1`, the “% Inhibition” value is recorded as -7% and the Z score worked out at 1.61.
For `Cc1cnccc1NCCNC1CCN(C(=O)[C@@H]2CCCO2)CC1`, in that order: -9% and 1.97.
Turning to `Cc1nc2c(c(N3CC[C@H](N(C)C)C3)n1)CCN(c1ccncc1)CC2`, the “% Inhibition” value is recorded as -3% and the Z score amounted to 0.47.
`Cc1ccc(NC(=O)c2ccc(Nc3ccc(-c4cccc(F)c4)nn3)cc2)c(C)c1`: the “% Inhibition” value was -13% and the Z score is listed as 2.19.
In the case of `CN1CCC(N(Cc2ccncc2)C(=O)NCCN2CCC[C@H](CO)C2)CC1`, the “% Inhibition” value is reported as -13% and the Z score was 2.21.
The corresponding values for `CCCCc1ccc(Nc2nc3ccccc3nc2Nc2ccc(CCCC)cc2)cc1` are 5% and -0.94.
In the case of `COCCCn1ccc(Nc2ccc3nccnc3n2)n1`, the “% Inhibition” value is listed as 1% and the Z score is recorded as -0.17.
The corresponding values for `COc1cc2nc(N[C@H]3CCN(C(C)C)C3=O)nc(N)c2cc1OC` are -1% and 0.28.
For `CN(C)C(=O)c1ccc(CN2CC(CC(=O)O)C(c3c[nH]nn3)C2)o1` (configuration not stated), in that order: -5% and 0.89.
`Nc1nc(N2CCCC3(CCNCC3)C2)nc2ccccc12`: the “% Inhibition” value stood at 6% and the Z score is given as -0.86.
In the case of `OC(CNc1ccc(Nc2ccccc2)cc1)CNc1ccc(Nc2ccccc2)cc1`, the “% Inhibition” value is given as -16% and the Z score is reported as 2.79.
The corresponding values for `O[C@H](COC1CCOCC1)CN1CCC(Oc2cnccn2)CC1` are -2% and 0.48.
For `CCN1CC(C)N(CC=CCN2CC(C)N(CC)CC2C)CC1C` (configuration not stated), in that order: 2% and -0.43.
For the compound `COC1CN(Cc2ccc(CN(C)S(C)(=O)=O)o2)CC1O` (configuration not stated), the “% Inhibition” value is listed as 0% and the Z score is listed as -0.07.
